The text below walks through data of the antibiotic and cytotoxicity screens of Wong et al. (2023).

One assay has as its system HSkMC. Briefly: cytotoxicity call (relative viability < 0.9). As to conditions: 10 µM.
In another assay the test system is S. aureus RN4220. Briefly: growth inhibition call (relative growth <= 0.2). Particulars: 50 µM.

Some of the results follow.

Consider `C[C@H]1CN([C@@H](C)CO)C(=O)c2cc(NC(=O)C3CC3)ccc2O[C@H]1CN(C)C(=O)NC1CCCCC1`, for which, in the assay with HSkMC, the cytotoxicity call was “inactive”. Further, the growth inhibition call with S. aureus RN4220 was “inactive”.

Regarding `C[C@H]1CN([C@@H](C)CO)C(=O)c2cc(NS(=O)(=O)c3ccc(Cl)cc3)ccc2O[C@@H]1CN(C)Cc1ccc(C(F)(F)F)cc1`, the cytotoxicity call in the assay on HSkMC is “active”. Further, the growth inhibition call in the assay on S. aureus RN4220 was “inactive”.

Turning to `NCc1ccc(S(=O)(=O)O)cc1`, the cytotoxicity call in the assay with HSkMC was “inactive”. Besides, in the assay on S. aureus RN4220, the growth inhibition call is “inactive”.

Turning to `C[C@@H]1CN([C@@H](C)CO)C(=O)c2cc(NC(=O)Nc3ccc(C(F)(F)F)cc3)ccc2O[C@@H](C)CCCCO[C@H]1CN(C)C(=O)c1ccccc1`, in the assay on HSkMC, the cytotoxicity call is “inactive”. For the same molecule, the growth inhibition call in the assay with S. aureus RN4220 was “inactive”.

With `Nc1nnc(N)c2ccccc12`, in the assay on HSkMC, the cytotoxicity call is “inactive”. Besides, in the assay on S. aureus RN4220, the growth inhibition call is “inactive”.

As for `C[C@@H]1CN([C@@H](C)CO)C(=O)Cc2cc(NS(=O)(=O)c3ccc(F)cc3)ccc2O[C@H]1CN(C)Cc1ccc(Oc2ccccc2)cc1`, in the assay with HSkMC, the cytotoxicity call is “inactive”. Besides, the growth inhibition call in the assay with S. aureus RN4220 was “inactive”.

For `Cc1ccc(S(=O)(=O)N[C@@H]2CC[C@@H](CC(=O)NCc3ccc(Cl)c(Cl)c3)O[C@@H]2CO)cc1`, the cytotoxicity call in the assay with HSkMC was “inactive”. The growth inhibition call in the assay with S. aureus RN4220 is “inactive”.

Turning to `Cc1ccc(S(=O)(=O)N(C)C[C@H]2Oc3ccc(N(C)C)cc3CC(=O)N([C@@H](C)CO)C[C@H]2C)cc1`, the cytotoxicity call in the assay on HSkMC was “inactive”. Also, in the assay with S. aureus RN4220, the growth inhibition call is “inactive”.

In the case of `O=C(NCc1cccc(F)c1)[C@@H]1[C@@H](CO)[C@@H]2Cn3c(cccc3=O)[C@H]1N2C(=O)c1cnccn1`, the cytotoxicity call with HSkMC is “inactive”. The growth inhibition call in the assay with S. aureus RN4220 is “inactive”.

For the molecule `O=C(C[C@H]1C[C@@H]2c3cc(NC(=O)c4ccc5c(c4)OCO5)ccc3O[C@@H]2[C@@H](CO)O1)NCCN1CCCCC1`, in the assay on HSkMC, the cytotoxicity call was “inactive”. Also, in the assay with S. aureus RN4220, the growth inhibition call was “inactive”.

Turning to `Cc1ccc(S(=O)(=O)Nc2ccc3c(c2)C(=O)N([C@@H](C)CO)C[C@H](C)[C@@H](CN(C)S(=O)(=O)c2ccc(F)cc2)OCCCC[C@H](C)O3)cc1`, the cytotoxicity call in the assay on HSkMC was “inactive”. Further, in the assay on S. aureus RN4220, the growth inhibition call is “inactive”.

On to `O=C(NCc1nc2ccccc2[nH]1)C1=C[C@H](c2ccc(C(F)(F)F)cc2)C[C@H](OCc2ccc(CO)cc2)O1`, for which the cytotoxicity call in the assay with HSkMC is “inactive”. For the same molecule, the growth inhibition call in the assay on S. aureus RN4220 is “inactive”.

For the molecule `C[C@@H]1CCCCO[C@@H](CN(C)Cc2ccc(C(F)(F)F)cc2)[C@@H](C)CN([C@H](C)CO)C(=O)c2cc(NC(=O)CCCN(C)C)ccc2O1`, in the assay on HSkMC, the cytotoxicity call is “inactive”. Besides, the growth inhibition call in the assay with S. aureus RN4220 is “inactive”.

For the molecule `COc1ccc(-c2coc3cc(O)ccc3c2=O)c(OC)c1OC`, the cytotoxicity call in the assay on HSkMC was “inactive”. Besides, in the assay with S. aureus RN4220, the growth inhibition call was “inactive”.

With `CC(C)NC(=O)N(C)C[C@H]1Oc2ccc(NC(=O)Cc3ccccc3)cc2CC(=O)N([C@@H](C)CO)C[C@@H]1C`, the cytotoxicity call in the assay with HSkMC was “inactive”. The growth inhibition call with S. aureus RN4220 was “inactive”.

Turning to `COCC(=O)N1C[C@H](C)[C@H](OC)CN(C)C(=O)c2cc(NC(=O)c3ccc(OC)cc3)ccc2OC[C@@H]1C`, in the assay with HSkMC, the cytotoxicity call is “inactive”. In addition, in the assay on S. aureus RN4220, the growth inhibition call was “inactive”.

Turning to `C[C@@H]1CCCCO[C@H](CN(C)Cc2ccc(C(F)(F)F)cc2)[C@@H](C)CN([C@@H](C)CO)C(=O)c2cc(NS(=O)(=O)c3cccs3)ccc2O1`, the cytotoxicity call in the assay with HSkMC was “inactive”. The growth inhibition call in the assay with S. aureus RN4220 was “inactive”.

For the molecule `C[C@@H]1CN([C@H](C)CO)C(=O)c2cc(NC(=O)CCCCCC(=O)Nc3ccccc3N)ccc2O[C@@H]1CN(C)Cc1ccccc1`, the cytotoxicity call in the assay on HSkMC was “inactive”. In the assay with S. aureus RN4220, the growth inhibition call was “inactive”.

As for `COc1ccccc1CN(C)C[C@H]1OCc2ccccc2-c2c(n(C)c3ccccc23)C(=O)N([C@@H](C)CO)C[C@@H]1C`, in the assay with HSkMC, the cytotoxicity call was “inactive”. Besides, in the assay with S. aureus RN4220, the growth inhibition call is “inactive”.

For the molecule `CCCNC(=O)C[C@@H]1CC[C@@H]2[C@@H](COc3ccc(NC(=O)c4ccc5c(c4)OCO5)cc3C(=O)N2C)O1`, in the assay with HSkMC, the cytotoxicity call was “inactive”. For the same molecule, the growth inhibition call in the assay with S. aureus RN4220 is “inactive”.

In the case of `C[C@@H]1CCCCO[C@H](CN(C)C(=O)Cc2ccccc2)[C@H](C)CN([C@H](C)CO)C(=O)c2cc(NC(=O)Nc3ccc(F)cc3)ccc2O1`, in the assay on HSkMC, the cytotoxicity call was “inactive”. The growth inhibition call with S. aureus RN4220 was “inactive”.

Take `COC(=O)C1=C2CC[C@H](CO)NC(=O)N[C@@H](Cc3ccccc3)C(=O)NCc3cn(nn3)C[C@H](Cc3ccccc3)NC(=O)c3oc(c(C(=O)OC)c3C(=O)OC)CC[C@H](CO)NC(=O)N[C@@H](Cc3ccccc3)C(=O)NCc3cn(nn3)C[C@H](Cc3ccccc3)NC(=O)C(=C1C(=O)OC)O2`: in the assay with HSkMC, the cytotoxicity call is “inactive”. Besides, the growth inhibition call with S. aureus RN4220 is “inactive”.

As to `C[C@H]1CN([C@@H](C)CO)C(=O)c2cc(NC(=O)CCCCCC(=O)Nc3ccccc3N)ccc2O[C@@H]1CN(C)CC1CCCCC1`, the cytotoxicity call in the assay with HSkMC is “inactive”. For the same molecule, the growth inhibition call in the assay with S. aureus RN4220 was “inactive”.

Regarding `C[C@H](CO)N1C[C@H](C)[C@H](CN(C)Cc2ccc(Cl)c(Cl)c2)Oc2c(NC(=O)Nc3cccc4ccccc34)cccc2C1=O`, the cytotoxicity call in the assay with HSkMC is “inactive”. In addition, the growth inhibition call with S. aureus RN4220 was “inactive”.

Turning to `CC(=O)OC1(C(C)=O)CCC2C3CC(C)C4=CC(=O)CCC4(C)C3CCC21C` (stereo not drawn), the cytotoxicity call with HSkMC was “inactive”. Further, the growth inhibition call with S. aureus RN4220 is “inactive”.

As to `O=C(C[C@H]1C[C@H]2c3cc(NS(=O)(=O)c4ccc(F)cc4)ccc3O[C@H]2[C@H](CO)O1)NCc1ccccc1`, the cytotoxicity call in the assay on HSkMC was “inactive”. The growth inhibition call with S. aureus RN4220 was “inactive”.

In the case of `C[C@@H]1CCCCO[C@H](CN(C)S(=O)(=O)c2ccccc2)[C@H](C)CN([C@@H](C)CO)C(=O)c2cc(NC(=O)Nc3ccccc3)ccc2O1`, in the assay with HSkMC, the cytotoxicity call was “inactive”. The growth inhibition call with S. aureus RN4220 was “inactive”.

On to `C[C@@H]1CCCCO[C@@H](CN(C)S(=O)(=O)c2ccc(Cl)cc2)[C@@H](C)CN([C@@H](C)CO)C(=O)c2cc(NC(=O)Nc3ccc4c(c3)OCO4)ccc2O1`, for which, in the assay with HSkMC, the cytotoxicity call was “inactive”. Further, the growth inhibition call with S. aureus RN4220 is “inactive”.

As for `C[C@H](CO)N1C[C@H](C)[C@H](CN(C)Cc2ccncc2)OCCCC[C@H](C)Oc2ccc(NC(=O)Nc3ccccc3)cc2C1=O`, in the assay on HSkMC (human skeletal muscle cells), the cytotoxicity call is “inactive”. Further, the growth inhibition call with S. aureus RN4220 is “inactive”.
